The experiment addresses T1, human B7-H3.1 expressed on 293 cells transfected with pcDNA/B7-H3 (human, UniProt Q5ZPR3 29-534).
T1 sequence: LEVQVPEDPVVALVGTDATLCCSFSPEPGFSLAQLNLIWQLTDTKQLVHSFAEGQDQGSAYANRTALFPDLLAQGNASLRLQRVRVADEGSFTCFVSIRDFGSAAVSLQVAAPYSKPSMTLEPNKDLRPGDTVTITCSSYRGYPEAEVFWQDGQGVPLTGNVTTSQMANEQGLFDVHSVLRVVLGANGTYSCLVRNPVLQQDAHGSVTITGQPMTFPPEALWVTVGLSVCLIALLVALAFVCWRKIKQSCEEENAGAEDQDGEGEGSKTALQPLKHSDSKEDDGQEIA
Description: flow cytometry on transfected 293 cells. In general terms: In flow cytometry, cells or beads pass a laser one at a time.

B1: CTLA4Ig fusion protein (Fc fusion)
chain: not shown
notes: extracellular domain; Described as an analogous fusion protein prepared by a method similar to that for B7-H3Ig (extracellular domain fused to mouse IgG2a Fc); not shown: Fc constant region of mouse IgG2a
For B1, the binding result is listed as “no binding (tested: 5 µg/sample)”.
